Assay results: PubChem BioAssay AID1030 (National Center for Advancing Translational Sciences (NCATS), 2008)
The campaign covered roughly 220,000 compounds. About 16,000 (7.3%) were called active. Inconclusive results, whose numbers are uncertain, are shown with a selection of clear calls. Calls come from the whole dose curve; as a rule, active = well fitted inhibition curve with a large enough effect (not every such curve was filed as active); inconclusive = small, poorly fitted or top-dose-only effect, or another doubt; inactive = no such curve, though single readings can be large or run the other way. Where the call is inconclusive, the potency comes from a doubtful curve fit.

What follows are compounds tested against Aldehyde dehydrogenase 1A1 (Homo sapiens) (UniProt P00352) (assay: qHTS Assay for Inhibitors of Aldehyde Dehydrogenase 1 (ALDH1A1)). Conditions: Purified ALDH1A1, NADH fluorescence, propionaldehyde substrate; series mostly up to 75.3 µM; activity, negative = inhibition: at the top concentration.
Potency is the fitted concentration of half-maximal effect; tags give direction and shape of the fitted curve.
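Throughout, for activity, negative = inhibition: plate controls were no enzyme wells and a reference inhibitor.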

Sequence of UniProt P00352 (P00352 whole entry, looked up): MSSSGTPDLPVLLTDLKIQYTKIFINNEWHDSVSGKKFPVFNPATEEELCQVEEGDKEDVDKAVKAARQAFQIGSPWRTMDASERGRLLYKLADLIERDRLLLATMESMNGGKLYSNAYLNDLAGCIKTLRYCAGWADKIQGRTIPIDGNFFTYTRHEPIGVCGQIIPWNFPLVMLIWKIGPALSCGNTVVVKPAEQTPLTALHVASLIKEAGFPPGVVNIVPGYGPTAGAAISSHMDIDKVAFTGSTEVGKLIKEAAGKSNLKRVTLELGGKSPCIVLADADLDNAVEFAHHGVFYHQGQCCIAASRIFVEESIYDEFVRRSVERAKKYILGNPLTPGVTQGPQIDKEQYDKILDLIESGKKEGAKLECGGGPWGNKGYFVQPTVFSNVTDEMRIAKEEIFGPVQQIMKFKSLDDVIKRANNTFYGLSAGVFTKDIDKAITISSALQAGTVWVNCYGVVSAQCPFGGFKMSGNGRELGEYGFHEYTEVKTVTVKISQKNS

Potency, active:
C/C(=N/N=C/c1ccc(N(C)C)cc1)c1ccccc1 25.1 µM
Cc1[nH]n(-c2cccc3ccccc23)c(=O)c1/C=N/c1sc2c(c1C#N)CCC2 5.01 µM
COC(=O)c1ccc2c(=O)n(-c3ccccc3)c(SCN3C(=O)c4ccccc4C3=O)nc2c1 12.6 µM
Cc1ccc(S(=O)(=O)CCC(=O)c2ccc(O)cc2O)cc1 0.282 µM
CCOC(=O)c1c(-c2ccc(OC)cc2)csc1NC(=O)C1CCCO1 (stereo not drawn) 8.91 µM
Cc1ccccc1N1CCN(CCCN2C(=O)CC(=C(c3ccccc3)c3ccccc3)C2=O)CC1 17.8 µM
CN1CCN(/C=N/c2sc3c(c2C#N)CCCCC3)CC1 10 µM
N#CC(Nc1ccccc1)c1ccccc1OCc1ccccc1 (stereo not drawn) 17.8 µM
Cc1cc(SCC(=O)c2cc3ccccc3o2)nc2ccccc12 28.2 µM
Cc1ccc(C2CC(=O)Oc3ccc(O)cc32)cc1 (stereo not drawn) 31.6 µM
Cc1ccc2nc(N3C(=O)C(O)=C(C(=O)c4cc5ccccc5o4)C3c3cccs3)sc2c1 (stereo not drawn) 20 µM
COc1ccc(NC(=O)CCCN2C(=O)/C(=C\c3ccco3)SC2=S)cc1 25.1 µM
CC1=C(C(=O)Nc2ccccc2)C2(CCCCC2)C(C#N)=C(S)N1 20 µM
CCc1ccc(N2C(=O)c3sc4nnc(C)c(=O)n4c3C2=O)cc1 5.01 µM

Potency, inconclusive:
Cc1cc(=O)[nH]c(Sc2c(-c3ccccc3)c3ccccc3[nH]c2=O)n1 37.7 µM [inhibitor, single point]
O=C(Nc1ccccc1)[C@@H]1[C@@H]2C(=O)N(c3ccc(F)cc3)C(=O)[C@@H]2[C@H]2C=CC=NN21 25.1 µM [inhibitor, single point]
O=C(Nc1ccccc1)N1CC=C(c2ccc(F)cc2)CC1 22.4 µM [inhibitor, single point]
CC1=CC(C#N)(C#N)C(C#N)(C#N)C(c2ccccc2)N1 (stereo not drawn) 31.6 µM [inhibitor, single point]
COc1ccc(CC(=O)NNC(=O)CSc2nc(C)c(C)c(=O)[nH]2)cc1 22.4 µM [inhibitor, single point]
O=C(Nc1sc2c(c1C(=O)NC1CCCCC1)CCC2)c1ccco1 35.5 µM [inhibitor, single point]
CCC(c1nnnn1C(C)(C)CC)N(CCN1CCOCC1)Cc1cc2cc(C)ccc2[nH]c1=O (stereo not drawn) 20 µM [inhibitor, partial curve]
O=C(CCC1CCCCC1)N1CCN(Cc2ccc3c(c2)OCO3)CC1 31.6 µM [inhibitor, single point]
Nc1ccc2oc(C3CCCCC3)nc2c1 22.4 µM [inhibitor, partial curve]
CCOC(=O)c1c(-c2ccc(F)cc2)csc1NC(=O)C1CC=CCC1C(=O)O (stereo not drawn) 35.5 µM [inhibitor, single point]
COc1ccc(C2CC(C(F)(F)F)n3ncc(C(=O)Nc4c(C)n(C)n(-c5ccccc5)c4=O)c3N2)cc1 (stereo not drawn) 39.8 µM [inhibitor, single point]
COCC(C)n1c(SCc2cc(=O)n3cc(C)ccc3n2)nc2ccccc2c1=O (stereo not drawn) 39.8 µM [inhibitor, single point]
Cc1ccc(-c2nc(N)sc2-c2ccccc2)cc1C 31.6 µM [inhibitor, single point]
Cc1ccc(NC(=O)CC2CS(=O)(=O)CC2CC(=O)Nc2ccc(C)c(C)c2)cc1C (stereo not drawn) 5.01 µM [inhibitor, single point]
C=CCSc1nnc(NC(=O)c2cn(CC)c3nc(C)ccc3c2=O)s1 10 µM [inhibitor, partial curve]
COc1ccc2c(c1)C=C([C@@H]1C[C@H]3CN(c4ccccc4)C(=O)[C@]34CCCN14)CO2 0.0045 µM [inhibitor, full curve, poor fit]
Cc1ccc(CNCC(O)(c2ccccc2)c2ccc(F)cc2)cc1 (stereo not drawn) 39.8 µM [inhibitor, single point]
COc1ccc(-c2nc3ccccc3c(=O)n2CCOc2c(C)cccc2C)cc1 39.8 µM [inhibitor, single point]
Cc1cccc(NC(=O)CSc2nc3nc(C)cc(C)c3c(=O)[nH]2)c1 25.1 µM [inhibitor, single point]
COC(=O)c1cc2ccsc2n1CC(=O)N1CCCc2ccccc21 25.1 µM [inhibitor, partial curve]
Cc1ccc(CNC(=O)C2COc3ccccc3O2)cc1 (stereo not drawn) 39.8 µM [inhibitor, single point]
CN(C)CCCN1C(=O)c2cccc3c([N+](=O)[O-])ccc(c23)C1=O 28.2 µM [inhibitor, single point]
CCOc1ccc(C2C(C#N)=C(N)SC(N)=C2C#N)cc1OCC 25.1 µM [inhibitor, partial curve]
COc1cc(NC(=O)CN2CCN(Cc3ccc4c(c3)OCO4)CC2)cc(OC)c1 28.2 µM [inhibitor, single point]
COc1ccc(-c2c(C)oc3c(CN4CCN(CCO)CC4)c(O)ccc3c2=O)cc1OC 31.6 µM [inhibitor, single point]
CCOC(=O)Cc1csc(NC(=O)c2ccc(S(=O)(=O)N3CCCCC3)cc2)n1 7.94 µM [inhibitor, full curve]
CCN(CCO)c1ncnc2c1sc1nc(CC(C)C)c3c(c12)CC(C)(C)OC3 14.1 µM [inhibitor, partial curve]
O=C(NC1CCCCC1)C(c1ccco1)N(C(=O)c1csnn1)C1CCCC1 (stereo not drawn) 9.46 µM [inhibitor, partial curve]
N=c1c(C(=O)NCc2ccc3c(c2)OCO3)cc2c(=O)n3ccccc3nc2n1Cc1cccnc1 39.8 µM [inhibitor, single point]
O=c1[nH]c2cc3c(cc2cc1CN(CC1CCCO1)S(=O)(=O)c1ccccc1)OCCO3 (stereo not drawn) 25.1 µM [inhibitor, partial curve]
O=C(O)CC1=C(Nc2ccccc2)C(=O)N(c2ccccc2)C1c1ccc(Cl)cc1 (stereo not drawn) 39.8 µM [inhibitor, single point]
COc1ccc(/C=N/NC2=NCCCCC2)c(OC)c1 35.5 µM [inhibitor, partial curve]
CC1=NN(c2ccc(S(=O)(=O)O)cc2C)C(=O)C1 28.2 µM [inhibitor, single point]
COc1ccc(NC(=O)c2cc([N+](=O)[O-])ccc2N2CCN(C)CC2)cc1 28.2 µM [inhibitor, partial curve]
COc1cc(/C=C2\SC(=S)N(CC(=O)Nc3cccnc3)C2=O)cc(OC)c1OC 39.8 µM [inhibitor, single point]
Cc1cccc(CSCCNC(=S)Nc2ccccc2)c1 39.8 µM [inhibitor, single point]
O=C(NN=C1CCC(=NNC(=O)c2cccnc2)CC1)c1cccnc1 39.8 µM [inhibitor, single point]
CCc1nc(N2CCN(Cc3ccc4c(c3)OCO4)CC2)c2oc3ccccc3c2n1 39.8 µM [inhibitor, single point]

activity, negative = inhibition, inactive:
O=[N+]([O-])c1ccc(/C=N/Nc2nc(-c3ccccc3)c3cc(Br)ccc3n2)o1 8.97%
CC(C)[C@H](NC(=O)c1ccccc1)C(=O)OCC(=O)N1CCCCCC1 10.8%
Cc1cccc(NC(=O)C2c3ccccc3C(=O)N3CCc4ccccc4C23)n1 (stereo not drawn) 10.6%
O=C(NCc1ccccn1)c1ccc(/C=N/O)nc1 0.975%
Cc1ccc(Cl)cc1NC(=O)Cn1cccc1 0.682%
Cc1ccc(C(=O)NNC(=O)CNc2cccc(Cl)c2)cc1 7.31%
Cc1ccc(S(=O)(=O)N(C)CC(=O)N2CCc3ccccc32)cc1 -14.1%
COc1ccc2c(c1)C(=O)[C@@H](OC(=O)NS(=O)(=O)c1ccc(C)cc1)[C@H](c1ccc(OC)c(Br)c1)O2 4%
CC(C(=O)NCCN1C(=O)S/C(=C\c2cccnc2)C1=O)N1C(=O)c2ccccc2C1=O (stereo not drawn) 0.794%
Cc1ccc(NC(=O)C(=O)NCCOc2ccc(Cl)cc2)c(C)c1 19.7%
CCC(C)(C)NC(=O)C(c1ccco1)N(C(=O)c1csnn1)c1cccc(F)c1 (stereo not drawn) 7.87%
O=C(Nc1ccc(-c2nc3ccccc3o2)cc1)c1ccc(N2CCOCC2)c([N+](=O)[O-])c1 -9.98%
COc1ccc(CC(=O)Nc2ccc(C(=O)O)cc2NC(=O)Cc2ccc(OC)cc2)cc1 -4.64%
O=C(Cn1cnc2scc(-c3ccccc3)c2c1=O)N1CCOCC1 6.02%
O=C(CN1CCCC1)Nc1ccccc1Cl 11.6%
O=C(NC1CCCC1)C1CCCN1C(=O)Oc1ccccc1 (stereo not drawn) 6.69%
Cc1sc2nc(COC(=O)c3cccc(S(=O)(=O)N(C)c4ccccc4)c3)[nH]c(=O)c2c1C -3.5%
Fc1ccc2[nH]c3c(N4CCc5ccccc5C4)ncnc3c2c1 -14.3%
CCC(=O)Nc1ccccc1Nc1cc(C#N)c(C#N)cc1[N+](=O)[O-] 3.83%
COc1ccc(C(=O)c2c(C(F)(F)F)oc3c2C(=O)c2ccccc2C3=O)cc1 -7.28%
CCN(CC)CCSc1nnc(Nc2ccccc2)n1-c1ccccc1 0.916%
